Measurements reported in PubChem BioAssay AID1345082 (National Center for Advancing Translational Sciences (NCATS), 2018).
Out of some 94,000 compounds screened, about 4,000 (4.3%) were called active. The inconclusive results got no clear call from the source; some entries with a clear call stand among them for comparison. The call rests on the fitted dose curve; in most records, active means well fitted inhibition curve with a large enough effect; inconclusive means small, poorly fitted or top-dose-only effect; inactive means no such curve, though single readings can be large or run the other way. A potency beside an inconclusive call is a rough fit, not a confirmed value.
Potency means the concentration at half of the fitted maximal effect; tags describe the fitted curve by direction and shape.

Experiment: Cytotoxic Profiling in NIH 3T3 Cell Line of Diverse Libraries Using Quantitative High-Throughput Screening; further: nearly all actives have a fitted effect of over 55% in size
Details: NIH 3T3 viability, CellTiter-Glo ATP luminescence, 48-72 h; series mostly up to 96.7 µM
Summary of the method: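 NIH 3T3 cells at 400 cells/well received 23 nL of compound by pintool and were incubated 48 or 72 h at 37 °C. Viability was read as ATP-coupled CellTiter-Glo luminescence.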
With Cc1nnc2ccc(N3CCN(C(=O)Nc4ccccc4F)CC3)nn12 the Potency was inconclusive: 70.8 µM [inhibitor, single point].
In the case of Cc1nn(-c2ccccc2)c2c1C(C(C)C)N(C1CCN(C(=O)c3ccc(F)cc3)CC1)C2=O (configuration not stated), the Potency is reported as inconclusive: 50.1 µM [inhibitor, partial curve, poor fit].
With O=S(=O)(c1cccs1)N1CCC(OC2CCN(Cc3ccccc3)CC2)CC1 the Potency was inconclusive: 44.7 µM [inhibitor, partial curve, poor fit].
In the case of COc1ncc(-c2cc(C(=O)NCc3cccnc3)c3c(c2)N(C)CCO3)cn1, the Potency is reported as active: 44.7 µM.
For COCC(=O)N1CCC(N2C(=O)c3c(c(C)nn3-c3ccccc3)C2C(C)C)CC1 (configuration not stated), the Potency was inconclusive: 70.8 µM [inhibitor, single point].
For Cc1ccc(CN(C(=O)c2ccco2)c2ccc(CC(=O)N(C)Cc3ccccc3)cc2)cc1, the Potency was inconclusive: 39.8 µM [inhibitor, partial curve, poor fit].
For COc1ccc(NC(=O)Nc2cccn3nc(C)nc23)cc1, the Potency was inconclusive: 39.8 µM [inhibitor, partial curve, poor fit].
With COCCn1c(C)cnc1CCNS(=O)(=O)c1ccccc1 the Potency was “inactive”.
With COc1cccc(Nc2ccc3c(n2)C(C)(C(=O)NCc2cccs2)CN(C)C3)c1 (configuration not stated) the Potency was inconclusive: 56.2 µM [inhibitor, partial curve, poor fit].
With COc1ccc2c(c1)OC[C@@H]1CN(C)C(=O)CCN(C(=O)OCC(C)C)[C@H]21 the Potency was inconclusive: 50.1 µM [inhibitor, partial curve, poor fit].
With O=C([C@@H]1C[C@H](Oc2ccccc2)CN1C(=O)CCCc1ccccc1)N1CCOCC1 the Potency was inconclusive: 56.2 µM [inhibitor, partial curve, poor fit].
In the case of c1ccc(CNc2ncc(CN3CCC4(CCNCC4)C3)cn2)cc1, the Potency is reported as inconclusive: 50.1 µM [inhibitor, partial curve, poor fit].
For Cc1ccccc1C(=O)N1CCN(c2cc(-c3cccs3)[nH]n2)CC1, the Potency was inconclusive: 15.8 µM [inhibitor, full curve, poor fit].
For CCC(=O)N1CCN(c2nc3c(s2)CC(C(=O)Nc2cccc(C)c2C)CC3)CC1 (configuration not stated), the Potency was inconclusive: 50.1 µM [inhibitor, partial curve, poor fit].
With O=C(c1ccc(C(F)(F)F)cc1)N1CCc2nc(C3CC3)nc(-c3ccc(Cl)cc3)c2CC1 the Potency was inconclusive: 28.2 µM [inhibitor, full curve, poor fit].
With Cc1noc(-c2ccc(S(=O)(=O)N3C[C@H](C4CC4)[C@@H](N)C3)o2)c1C the Potency was inconclusive: 31.6 µM [inhibitor, partial curve, poor fit].
With CN(c1ccccc1)c1cc(=O)c2ccnc(N3CCN(c4ccccn4)CC3)c2o1 the Potency was inconclusive: 3.55 µM [inhibitor, full curve, poor fit].
With COc1ccccc1-c1ccc2c(n1)CN(Cc1csc(C)n1)C(=O)CO2 the Potency was active: 44.7 µM.
With O=C(NCc1ccc(Br)cc1)c1nnn2c1COC(c1ccc(Cl)cc1)C2 (configuration not stated) the Potency was inconclusive: 39.8 µM [inhibitor, partial curve, poor fit].
With O=C(NC1CCN(c2ccc3nnc(C4CC4)n3n2)C1)C1CCCCC1 (configuration not stated) the Potency was “inactive”.
With CS(=O)(=O)NCCc1ccc(CC2CCN(C(=O)CC3CCCC3)CC2)cc1 the Potency was active: 39.8 µM.
With CCOC(=O)C1(Cc2ccccc2F)CCCN(C(=O)c2ccc3ncccc3c2)C1 (configuration not stated) the Potency was inconclusive: 31.6 µM [inhibitor, full curve].
In the case of COc1ccc(-c2cc(N3CCCN(C(=O)c4nn(C)c5ccccc45)CC3)n[nH]2)cc1, the Potency is reported as inconclusive: 39.8 µM [inhibitor, partial curve].
In the case of O=C1Nc2ccccc2CC12CCCCN2Cc1ccc(F)cc1 (configuration not stated), the Potency is reported as inconclusive: 89.1 µM [inhibitor, partial curve, poor fit].
For COc1ccccc1-n1cc(-c2ccnc(N3CC(n4cccn4)C3)n2)cn1, the Potency was “inactive”.
For C[S+](=O)([O-])c1ccc(-c2nnc3ccc(C(=O)NCc4cccc(C(F)(F)F)c4)cn23)cc1, the Potency was inconclusive: 50.1 µM [inhibitor, partial curve, poor fit].
For O=C(NCCc1ccc(Cl)cc1)c1ccc2oc(-c3cccnc3)nc2c1, the Potency was “inactive”.
With COc1ccc(OC2CN(Cc3cccc4ccccc34)C2)cc1 the Potency was inconclusive: 89.1 µM [inhibitor, single point].
In the case of O=C1CC2(CCN(Cc3cccc(OCc4ccccc4Cl)c3)CC2)CN1, the Potency is reported as inconclusive: 44.7 µM [inhibitor, partial curve].
In the case of CCc1cccc2c(C(CC(=O)NCCC(C)C)c3cccc(OC)c3OC)c[nH]c12 (configuration not stated), the Potency is reported as inconclusive: 50.1 µM [inhibitor, partial curve, poor fit].
In the case of Cc1nn2c(c1-c1cccnc1N1CCOCC1)N(CCCc1ccccc1)CCC2, the Potency is reported as inconclusive: 50.1 µM [inhibitor, partial curve, poor fit].
With C1=C(c2nc(-c3cccc4[nH]ncc34)cc3c2ccn3Cc2cccnc2)CCOC1 the Potency was inconclusive: 20 µM [inhibitor, full curve, poor fit].
In the case of O=C1Nc2ccccc2C2(CCN(C(=O)OCc3ccccc3)C2)O1 (configuration not stated), the Potency is reported as inconclusive: 44.7 µM [inhibitor, partial curve, poor fit].
In the case of O=C(NC1CCN(c2nccc(Nc3ccccc3F)n2)CC1)C1CC1, the Potency is reported as inconclusive: 44.7 µM [inhibitor, partial curve, poor fit].
For O=C(Cc1ccc(Cl)cc1)NC1CCN(c2cc(-c3ccc(F)cc3)[nH]n2)C1 (configuration not stated), the Potency was inconclusive: 44.7 µM [inhibitor, partial curve, poor fit].
With Cc1ccc(-c2cc3c(=O)n(CCNC(=O)Cc4cccc(F)c4)ccn3n2)c(C)c1 the Potency was inconclusive: 50.1 µM [inhibitor, partial curve, poor fit].
In the case of CCn1ccc(C(=O)N2CCCC(c3noc(COc4ccccc4F)n3)C2)n1 (configuration not stated), the Potency is reported as inconclusive: 28.2 µM [inhibitor, full curve, poor fit].
With O=C(c1ccc(F)cc1)N1CCCC(C(=O)N2CCC(c3ccccc3)CC2)C1 (configuration not stated) the Potency was inconclusive: 44.7 µM [inhibitor, partial curve].
In the case of O=C(Nc1cccc2ccccc12)O[C@@H]1CO[C@H]2[C@@H]1OC[C@@H]2n1nnnc1Sc1ccccc1, the Potency is reported as “inactive”.
In the case of CN1c2cc(C(=O)Nc3ccc(S(N)(=O)=O)cc3)ccc2C(=O)N2CCCCC21 (configuration not stated), the Potency is reported as “inactive”.
For Cc1ccc(CN2CCc3ncc(C(=O)NCCOc4ccccc4)n3CC2)o1, the Potency was active: 35.5 µM.
With O=C(c1ccc(Cl)nc1)N1CCC(c2nn(-c3ccc(Cl)cc3)c(=O)[nH]2)CC1 the Potency was “inactive”.
For COc1cccc(-c2cccc(C(=O)N3CCCC3C(=O)NCc3ccc(Cl)cc3)c2)c1 (configuration not stated), the Potency was inconclusive: 50.1 µM [inhibitor, partial curve, poor fit].
In the case of COc1ccc(-c2cn3cc(C(=O)N(C)C)nc3s2)cc1, the Potency is reported as active: 89.1 µM.
With Cn1ncc2c(C(=O)Nc3ccc(F)cc3)cc(-c3ccccc3C(F)(F)F)nc21 the Potency was inconclusive: 35.5 µM [inhibitor, partial curve].
In the case of COc1cccc(NC(=O)C2(C)CCc3cnc(N4CCOCC4)nc32)c1 (configuration not stated), the Potency is reported as inconclusive: 79.4 µM [inhibitor, partial curve].
With Fc1ccc(CN2C[C@@H](F)[C@@H](OCc3nc4ccccc4o3)C2)cc1 the Potency was inconclusive: 89.1 µM [inhibitor, partial curve].
In the case of CCCOCCNC(=O)c1c(C)noc1-c1ccc(OC(F)(F)F)cc1, the Potency is reported as “inactive”.
With COc1ccc(C(=O)N2CCC3(CC2)C(=NC2CCCCC2)NC(=O)N3c2cc(F)cc(F)c2)cc1 the Potency was active: 31.6 µM.
For O=C(NCCc1ccccc1F)c1ccc2oc(-c3cccnc3)nc2c1, the Potency was inconclusive: 28.2 µM [inhibitor, partial curve].
For COc1ccccc1NC(=O)Nc1ccc(-c2nnc3n2CCCC3)cc1, the Potency was “inactive”.
In the case of Cc1cnn(C)c1S(=O)(=O)NC1CC(c2cc(N3CCCC3)ncn2)C1 (configuration not stated), the Potency is reported as inconclusive: 79.4 µM [inhibitor, partial curve].
For COc1ccc(OCC(O)CN2CCC(=O)N(Cc3ccccc3)Cc3cc4c(cc32)OCO4)cc1 (configuration not stated), the Potency was inconclusive: 39.8 µM [inhibitor, partial curve, poor fit].
In the case of O=C(N1CCCC1)N1CCN(c2cc(Cl)ncn2)C(=O)C1, the Potency is reported as inconclusive: 50.1 µM [inhibitor, partial curve, poor fit].
With O=C(c1cccc(-c2ncc[nH]2)c1)N1CCn2nc(Cc3ccccc3)cc2C1 the Potency was inconclusive: 44.7 µM [inhibitor, partial curve].
For COc1ccc(C(=O)N2CC(=O)N(Cc3ccco3)CC(O)C2)cc1OC (configuration not stated), the Potency was inconclusive: 56.2 µM [inhibitor, single point].
In the case of O=S(=O)(c1ccccc1Cl)N1CCC(c2noc(COCC3CC3)n2)CC1, the Potency is reported as inconclusive: 44.7 µM [inhibitor, partial curve].
For COc1ccc(CN2C[C@H]3CN(Cc4ccc5c(c4)OCCO5)CCN3C2=O)cc1, the Potency was inconclusive: 89.1 µM [inhibitor, partial curve].
With COc1ccccc1-c1cccc(C(=O)N2CCC[C@H]2C(=O)NCc2cccnc2)c1 the Potency was “inactive”.
For CC(=O)Nc1ccc(CC(=O)N2CCC3(CCc4nn(Cc5ccccc5)c(=O)n4CC3)CC2)cc1, the Potency was “inactive”.
In the case of O=C(NC1CC1)C1CCCN(c2nc3ncccc3o2)C1 (configuration not stated), the Potency is reported as “inactive”.
With COc1cccc(-c2cn3cc(C(=O)NCc4ccccc4Cl)nc3s2)c1 the Potency was inconclusive: 44.7 µM [inhibitor, partial curve, poor fit].
